Results as given in PubChem BioAssay AID445 (National Center for Advancing Translational Sciences (NCATS), 2006).
In all, about 110,000 compounds went through this assay and about 40 (0.04%) were called active. The shares of active, inactive and inconclusive entries below differ from those in the screen. Calls follow the shape of the dose curve; as a rule, active = well fitted curve in the direction sought with a large enough effect in the signal ratio (not every such curve was filed as active); inconclusive = small, poorly fitted or top-dose-only effect, or a change in a side signal; inactive = flat fitted curve, though single readings scatter; the % refers to the signal ratio. Potencies beside an inconclusive call are fits to weak or partial responses and may not hold up.

Test: IkB Signaling;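 as to IkBa stabilization activation: 0% = basal untreated cells and 100% = reference inhibitor full response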
Conditions: ABC-DLBCL IkBa-CBG/CBR dual luciferase ratio (green luciferase fused to IkBa over red control in OCI-Ly3 lymphoma cells), 4 h; IkBa stabilization activation: at 57.1 µM (top of the series), scaled: untreated 0%, proteasome inhibitor 100% unless noted
Summary of the method: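 In this assay, an IκBα–CBG68 fusion accumulates when IKK-driven degradation is blocked; native CBR normalizes for cell number. OCI-Ly3 cells were treated 4 h with compound and doxycycline, then green and red light read after Chroma-Glo addition.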
Potency is read from the fitted curve at half-maximal effect.

SMILES | IkBa stabilization activation | Potency
CCOc1ccccc1CNC(=O)c1ccc(N2Cc3ccccc3Oc3ncccc32)s1 | inconclusive: 0.614% [signal inhibitor] | 
COc1ccc(CNC(=O)CCCn2nc(C)c3sc4ccccc4c3c2=O)cc1OC | inconclusive: 0.00379% [signal inhibitor] | 
COc1cc2c(cc1OC)-c1cc(OCc3cccnc3)nc(=O)n1CC2 | inactive: -1.92% | 
Cc1ccc(CNC(=O)c2cccn2-c2nnc(N3CCCC3)s2)cc1 | inconclusive: -0.949% [signal inhibitor] | 
COc1cccc(Cn2c(C3CC3)nc3ccc(NC(=O)c4ccco4)cc3c2=O)c1 | inconclusive: 8.13% [signal inhibitor] | 
O=C(Cn1ncc2ccsc2c1=O)N1CCN(c2ccc(F)cc2)CC1 | inconclusive: -0.27% [signal inhibitor] | 
CCC1CN(C(=O)Nc2cccc3c2CCCC3)c2cc(Cl)ccc2O1 (stereo not given) | inconclusive: -0.568% [signal inhibitor] | 
COc1ccc(OCC(=O)Nc2ccc(S(=O)(=O)N3CCCCCC3)cc2)cc1 | inactive: 2.62% | 
CC1(C)CC(Nc2ccc(Nc3ccccc3)cc2)CC(C)(C)N1 | inactive: 2.42% [at 11.4 µM, scaled: untreated 0%, proteasome inhibitor 100%] | 
Cc1oc(-c2ccccc2Cl)nc1CS(=O)CC(=O)NCc1ccc(Cl)cc1 (stereo not given) | inconclusive: 3.65% [signal inhibitor] | 
O=C(Nc1ccc2c(c1)OCO2)c1ccc(Br)s1 | inconclusive: 7.17% [signal inhibitor] | 
Cc1ccc(COc2ccc(-c3cc(C(F)(F)F)n4nc(C)cc4n3)cc2)cc1 | inconclusive: -0.938% [signal inhibitor] | 
O=S(=O)(Nc1nc2ccccc2nc1Nc1ccccc1Br)c1ccccc1 | inconclusive: 4.1% [signal inhibitor] | 
Fc1ccc(-c2ccc(CNCCSc3nnnn3-c3ccccc3)o2)cc1 | inconclusive: -0.411% [signal inhibitor] | 
CN1CCc2nc(SCC(=O)Nc3ccc(F)cc3)c(C#N)cc2C1 | inconclusive: 4.4% [signal inhibitor] | 
O=C(Nc1ccc(Oc2ccc(S(=O)(=O)N3CCOCC3)cn2)cc1)c1ccco1 | inactive: 0.678% | 
CC1CCc2c(sc(NC(=O)c3cc(-c4cccc(Cl)c4)on3)c2C(N)=O)C1 (stereo not given) |  | inconclusive: 25.1 µM [signal inhibitor, partial curve]
Cc1ccc(NC(=O)Cc2coc3ccc(C(C)C)cc23)c(C)c1 | inconclusive: -1.17% [signal inhibitor] | 
Cc1oc2c(cc(NS(=O)(=O)c3ccc(C(C)C)cc3)c3ccccc32)c1C(=O)O | inconclusive: 13.9% [signal inhibitor] | 
c1ccc(-c2nc(CSc3nnnn3-c3ccccc3)cs2)cc1 | inconclusive: 2.84% [signal inhibitor] | 
C=CCn1c(SCC(=O)Nc2ccccc2)nnc1-c1cccc(S(=O)(=O)N2CCOCC2)c1 | inconclusive: 5.24% [signal inhibitor] | 
O=C(Cn1c(=O)n(CCCS(=O)(=O)C2CCCCC2)c(=O)c2ccccc21)Nc1ccccc1C(F)(F)F | inactive: -2% | 
Cc1ccc(S(=O)(=O)c2[nH]c(-c3ccccc3)nc2SCC(N)=O)cc1 | inconclusive: 2.08% [signal inhibitor] | 
CCCN=C(N)NCCC[C@H](N)C(=O)O | inactive: -0.104% | 

SMILES | IkBa stabilization activation | Potency
CCOC(=O)N1CCN(C(=O)c2c(C)nn(-c3cccc(C)c3)c2-n2cccc2)CC1 | inconclusive: -0.938% [signal activator] | 
CCc1ccc2[nH]c(=O)c(CN(Cc3ccccc3)Cc3nnnn3Cc3ccco3)cc2c1 | inconclusive: 9.71% [signal inhibitor] | 
Cc1ccc(C)c(N2CCN(C(=O)CCS(=O)(=O)c3cc4c(cc3Cl)NC(=O)CO4)CC2)c1 | inactive: 1.32% | 
O=C(NCc1ccc2c(c1)CCN2C(=O)c1ccccc1)c1ccccc1 | inconclusive: -0.358% [signal inhibitor] | 
Cn1cnc2cc(OC(=O)c3ccccc3)ccc21 | inactive: 3.99% | 
COc1ccc(CNC(=O)C2=C(C)C(=O)OC23CCCCC3)cc1 | inconclusive: 0.901% [signal inhibitor] | 
CCCSc1nnc2c(n1)OC(c1ccc(Br)s1)Nc1ccccc1-2 (stereo not given) | inconclusive: 2.91% [signal inhibitor] | 
COCCOC(=O)C1=C(C)OC(N)=C(C#N)C1c1ccc2c(c1)OCO2 (stereo not given) | inconclusive: 15.3% [signal activator] | 
COc1ccc(-c2onc(C)c2C)cc1S(=O)(=O)NCC(C)c1ccccc1 (stereo not given) | inconclusive: 13.7% [signal inhibitor] | 
O=C(Nc1cccnc1)c1ccc(Oc2ccccc2)cc1 | inactive: 4.17% | 
CC(=O)Nc1ccc(NC(=O)c2cc(C)nn2-c2ccccc2)cc1 | inactive: -1.48% | 
COc1cccc(-c2cc(C(=O)N3CCCCC3C)no2)c1 (stereo not given) | inactive: 0.761% | 
CCOc1ccc(C2=Nn3c(nnc3-c3ccc(OC)cc3)SC2)cc1 | inactive: 0.207% | 
Cc1nonc1NC(=O)CSc1nnc(-c2ccoc2C)n1C | inactive: 1.24% | 
CCOC(=O)N1CCN(C(=O)CSCC(=O)Nc2nc(-c3ccc4c(c3)OCO4)cs2)CC1 | inconclusive: 0.136% [signal inhibitor] | 
COc1cccc(N2CCN(C(=O)CCCn3c(=O)[nH]c4ccc(Br)cc4c3=O)CC2)c1 | inconclusive: 1.73% [signal inhibitor] | 
Cc1ccc(Nc2c(-c3ccc(Cl)cc3)nc3sccn23)c(C)c1 | inconclusive: -2.71% [signal inhibitor] | 
CC(C)Oc1cccc(C(=O)Nc2ccc3oc(-c4cccc(Cl)c4)nc3c2)c1 | inconclusive: 5.91% [signal inhibitor] | 
CN1CCN(c2ncc3nc(-c4ccccc4)c(=O)n(C4CC4)c3n2)CC1 | inactive: -4.06% [at 11.4 µM, scaled: untreated 0%, proteasome inhibitor 100%] | 
COc1ccc(OC)c(CNS(=O)(=O)c2ccc3[nH]c4c(c3c2)CCCCC4)c1 | inconclusive: 3.47% [signal inhibitor] | 
CC1(C)CCC(C)(C)c2cc(C(=O)Nc3ccc(C(=O)O)cc3)ccc21 | inconclusive: 1.77% [signal inhibitor] | 
CCn1cnc2c1c(=O)n(CC(=O)N1CCc3ccccc31)c(=O)n2Cc1ccccc1 | inconclusive: 6.16% [signal inhibitor] | 
Cc1ccc(NC(=O)CSc2nccn2Cc2ccco2)cc1Cl | inconclusive: 4.56% [signal inhibitor] | 
COc1cccc(NC(=O)CSCc2cc(=O)c3ccc(C)c(C)c3[nH]2)c1 | inconclusive: 2.55% [signal inhibitor] | 

SMILES | IkBa stabilization activation | Potency
CCOc1ccccc1O[C@@H](c1ccccc1)[C@@H]1CNCCO1 | inconclusive: 1.73% [signal inhibitor] | 
O=S(=O)(NC1CCc2ccccc21)c1ccc(S(=O)(=O)N2CCCC2)cc1 (stereo not given) | inconclusive: 9.08% [signal inhibitor] | 
CCCCCOC(=O)c1ccc(NC(=O)c2ccco2)cc1 | inconclusive: 15.1% [signal inhibitor] | 
Cc1nn2c(=O)cc(COC(=O)c3cccc(NC(=O)COc4ccccc4Cl)c3)nc2s1 |  | inconclusive: 31.6 µM [signal inhibitor, single point]
Cc1ccc(C(=O)c2cn(Cc3cccc(C)c3)c3nc(C)ccc3c2=O)cc1 | inconclusive: 3.95% [signal inhibitor] | 
COc1cccc2c1C(=N)c1c(O)c3c(c(O)c1C2=O)C[C@](O)(C(C)=O)C[C@@H]3O[C@H]1C[C@H](N)[C@@H](O)[C@H](C)O1 | inconclusive: 2.85% [signal inhibitor] [at 11.4 µM, scaled: untreated 0%, proteasome inhibitor 100%] | 
CCOc1ccccc1CN(CCc1ccc2c(c1)OCO2)Cc1ccccn1 | inactive: 4.03% | 
CC(C)Oc1ccc(CNS(=O)(=O)c2ccc3c(c2)C(C)(C)C(=O)N3C)cc1 | inactive: -0.182% | 
Cc1ccc(NC(=O)CSc2ncc(S(=O)(=O)c3ccc(C(C)C)cc3)c(=O)[nH]2)cc1C | inconclusive: 14.6% [signal inhibitor] | 
Cc1cc(C)n2c(Nc3ccc4c(c3)OCCO4)c(-c3ccc(Cl)cc3)nc2n1 | inconclusive: 1.69% [signal inhibitor] | 
COC(=O)c1cc(S(=O)(=O)N2CCN(c3ccc(OC)cc3)CC2)c[nH]1 | inconclusive: 1.84% [signal inhibitor] | 
COC(=O)c1ccccc1NC(=O)C(C)Oc1ccccc1 (stereo not given) | inactive: -1.86% | 
CC(C)n1c(-c2ccc(N(C)C)cc2)nc2ccccc21 |  | inconclusive: 31.6 µM [rising, partial curve]
Cc1cc(C(=O)OCC(=O)NCc2ccco2)c(C)n1-c1ccccc1 | inconclusive: 15.1% [signal activator] | 
Cc1ccc(-n2c(C)cc(C(=O)CSc3nncs3)c2C)cc1 | inconclusive: -0.923% [signal inhibitor] | 
N#Cc1ccc(NC(=O)c2cc3cc4c5c(c3oc2=N)CCCN5CCC4)cc1 | inactive: 1.22% | 
C=CCc1cccc(CNc2nc3ccccc3n2CCC)c1O | inconclusive: -0.117% [signal inhibitor] | 
C=CCCCC | inactive: 0.136% | 
CCCCSC1=C(C#N)C(c2ccccc2C)C(C(=O)OCC)C(=O)N1 (stereo not given) | inconclusive: 7.66% [signal inhibitor] | 
Cc1nn(C)c2c1c(C(F)(F)F)cc(=O)n2CC(=O)NCCC(C)C | inactive: 0.827% | 
COCCn1c(N)c(C(=O)OCc2ccccc2)c2nc3ccccc3nc21 | inconclusive: 2.97% [signal inhibitor] | 
Cn1c(CCNC(=O)c2ccco2)nc2cc(NS(=O)(=O)c3ccc(Cl)cc3)ccc21 | inconclusive: 1.87% [signal inhibitor] | 
